According to paper PMC4336329 (PLoS ONE, 2015):
In all, about 310,000 compounds went through this assay and about 2,200 (0.71%) showed an effect of 50% or more. The effect is printed as a negative number. The list shows a part of the results.

What follows are compounds tested against human ether-à-go-go-related gene (hERG) potassium channel (human, UniProt Q12809) (assay: primary screen, population patch clamp on CHO cells stably expressing hERG).
Chain of human ether-à-go-go-related gene (hERG) potassium channel (Q12809 whole entry, looked up): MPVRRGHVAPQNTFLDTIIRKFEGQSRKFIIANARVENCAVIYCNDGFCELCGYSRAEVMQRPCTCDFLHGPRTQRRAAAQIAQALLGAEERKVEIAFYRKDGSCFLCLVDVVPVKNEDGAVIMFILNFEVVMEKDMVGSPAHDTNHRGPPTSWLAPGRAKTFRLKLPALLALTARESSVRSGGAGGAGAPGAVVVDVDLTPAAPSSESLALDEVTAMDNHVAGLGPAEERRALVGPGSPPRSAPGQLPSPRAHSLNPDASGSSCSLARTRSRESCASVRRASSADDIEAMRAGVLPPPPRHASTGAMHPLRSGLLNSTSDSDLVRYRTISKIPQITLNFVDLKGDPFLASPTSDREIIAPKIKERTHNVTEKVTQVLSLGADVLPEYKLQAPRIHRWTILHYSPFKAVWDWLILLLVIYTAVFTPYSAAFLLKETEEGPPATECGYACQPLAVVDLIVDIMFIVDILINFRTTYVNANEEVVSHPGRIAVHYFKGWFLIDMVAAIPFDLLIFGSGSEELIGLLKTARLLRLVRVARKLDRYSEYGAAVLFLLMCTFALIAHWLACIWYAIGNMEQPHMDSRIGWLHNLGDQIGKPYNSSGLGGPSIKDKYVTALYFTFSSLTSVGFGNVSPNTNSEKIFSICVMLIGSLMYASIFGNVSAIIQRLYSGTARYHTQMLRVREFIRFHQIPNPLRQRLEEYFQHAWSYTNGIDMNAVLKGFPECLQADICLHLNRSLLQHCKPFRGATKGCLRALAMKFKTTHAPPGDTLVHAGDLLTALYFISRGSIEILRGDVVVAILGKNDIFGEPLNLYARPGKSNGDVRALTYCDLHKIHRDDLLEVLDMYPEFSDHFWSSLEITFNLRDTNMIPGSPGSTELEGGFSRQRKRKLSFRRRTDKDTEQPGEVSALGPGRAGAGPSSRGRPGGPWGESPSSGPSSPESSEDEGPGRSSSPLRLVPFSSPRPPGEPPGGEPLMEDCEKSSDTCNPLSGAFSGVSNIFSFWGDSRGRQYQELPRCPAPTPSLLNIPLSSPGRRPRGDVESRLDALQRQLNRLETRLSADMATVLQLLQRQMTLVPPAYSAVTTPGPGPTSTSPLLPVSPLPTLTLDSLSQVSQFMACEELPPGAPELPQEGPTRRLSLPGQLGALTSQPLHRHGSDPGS

SMILES | hERG current change (%, negative = inhibition) at 1uM
COC(=O)COc1cccc(NC(=O)C(c2ccccc2)c2ccccc2)c1 | 14.9%
O=C(Nc1nc2ccc(F)cc2s1)c1ccc(N2CCCC2=O)cc1 | 17.1%
CC1=NN(C(=O)c2ccccc2Cl)C(O)(c2cccnc2)C1 (stereo not drawn) | 12.8%
COc1ccc(/C=C/c2noc(-c3ccccc3O)n2)cc1 | 7.62%
CCn1c2ccccc2c2cc(/C=N/n3cn[nH]c3=S)ccc21 | 16%
O=C(O)c1cc(-c2ccccc2)nc2ccccc12 | 15.2%
Cl.N=C(N)c1ccc(N)cc1 | 14.2%
Cc1cc(S(=O)(=O)NC(C)C)ccc1OCC(=O)NCc1ccccc1 | 6.97%
COc1ccc2c(c1)CCC1C2=NN(/C(C)=C\C(C)=O)C1c1ccc(F)cc1 (stereo not drawn) | 4.03%
Cc1nc2ccc(NC(=O)c3cccs3)cc2s1 | 15.9%
Brc1cccc(-c2nnc(SCc3ccon3)n2-c2ccccc2)c1 | -6.13%
COCCNC(=O)c1cnn2c(C(F)(F)F)cc(-c3ccc4c(c3)OCO4)nc12 | -7.42%
Cc1cc(NC(=O)Cn2nc(C(F)(F)F)c3c2CCCC3)no1 | 2.49%
C=CCS(=O)(=O)c1cccc2cccnc12 | 10.1%
O=C(CSc1cccc(C(F)(F)F)c1)N1CCN(S(=O)(=O)c2ccccc2)CC1 | -0.365%
O=S(=O)(c1ccc(-c2nnco2)cc1)N1CCCCC1 | 13.4%
Cc1ccnc(NC(=O)C2CCN(S(=O)(=O)c3ccc4ccccc4c3)CC2)c1 | 5.86%
COc1cc(C(C)=O)ccc1OCC(O)CN1CCN(c2ccc(C)cc2C)CC1 (stereo not drawn) | -6.48%
COc1ccccc1Oc1ccc(NC(=O)Cc2ccccc2)cc1 | 11.7%
COc1cc(NS(=O)(=O)c2ccc(NC(=O)c3ccc(S(=O)(=O)N4CCCC4)cc3)cc2)ncn1 | 16.3%
O=[N+]([O-])c1ccc(NCc2ccncc2)cc1 | 10.1%
CC(C)NC(=O)/C(=N\O)c1ccccc1 | -2%
Cc1cc(NC(=O)C(C)SCC(=O)OCC(=O)Nc2c(C)cccc2C(C)C)no1 (stereo not drawn) | 6.36%

SMILES | hERG current change (%, negative = inhibition) at 1uM
CC(C)Cc1nnc(NC(=O)CCC(=O)Nc2ccc(F)cc2)s1 | 0.226%
Cc1nc([N+](=O)[O-])cn1CC(O)c1ccc(Cl)cc1 (stereo not drawn) | 4.78%
CSc1ncccc1C(=O)N1CCCC(CCC(=O)NCc2ccc(F)c(F)c2)C1 (stereo not drawn) | 6.69%
COC(=O)c1ccc(N2CCC(c3cc(-c4ccc(OC)cc4)n[nH]3)CC2)c([N+](=O)[O-])c1 | 17.1%
O=C(Nc1nc(-c2cc3ccccc3oc2=O)cs1)c1ccco1 | 12.2%
COc1ccc(C)cc1-n1nnnc1SCc1csc(C)n1 | -4.07%
CC1(C)Cc2nc3sc4c(SCC(=O)NCc5ccco5)ncnc4c3cc2CO1 | 15.7%
O=C(NCc1cccs1)C(=O)NCC1OCCCN1S(=O)(=O)c1cc(F)ccc1F (stereo not drawn) | 5.58%
CCOC(=O)c1ccc(-c2ccc(C=O)o2)cc1 | 16.1%
CN(C)c1ccc(C=Nc2ccccc2)cc1 | 13.7%
O=C(Nc1ccc(NS(=O)(=O)c2ccccc2)cc1)c1ccccc1 | 12.9%
Cc1cccc(N(CC(=O)NC(C)(C)C)C(=O)CS(=O)CC(=O)Nc2ccc3c(c2)OCO3)c1 (stereo not drawn) | 9.48%
COc1ccc(C(c2nnnn2CC2CCCO2)N2CCN(c3ccc(F)cc3)CC2)cc1.Cl (stereo not drawn) | -11.5%
COC(=O)c1ccc(C(=O)N2CCCC(Nc3ccc(C(C)C)cc3)C2)cc1 (stereo not drawn) | 3.4%
O=C1[C@H](O)[C@@H](O)C(=O)N1Cc1ccccc1 | 12%
Cn1cccc1C(=O)C(=O)Nc1ccccc1C(F)(F)F | 9.27%
COC(=O)C1=C(C)NC(=O)NC1c1ccc2ccccc2c1 (stereo not drawn) | 11.8%
O=C(COc1ccc(F)cc1)N(CC1=CCS(=O)(=O)C1)c1ccccc1 | 2.17%
O=C(CSc1nc2ncc(Br)cc2[nH]1)Nc1ccc2c(c1)OCO2 | 22.4%
CCOC(=O)C1(Cc2ccccc2C(F)(F)F)CCN(C2CCN(C(C)C)CC2)CC1 | 7.19%
CCOC(=O)c1cc(-c2ccc(C)o2)n[nH]1 | 11.6%
COc1ccc(C(=O)OC(C)CN2CCN(C)CC2)cc1.Cl (stereo not drawn) | 12.7%
